Measurements as given in a collection of fitness landscapes (doi:10.1126/science.1257360).
This is one part of the list.

B1: PhoQ; a variant is named by its letters at X, in order, P23837 (parent)
chain: MKKLLRLFFPLSLRVRFLLATAAVVLVLSLAYGMVALIGYSVSFDKTTFRLLRGESNLFYTLAKWENNKLHVELPENIDKQSPTMTLIYDENGQLLWAQRDVPWLMKMIQPDWLKSNGFHEIEADVNDTSLLLSGDHSIQQQLQEVREDDDDAEMTHSVAVNVYPATSRMPKLTIVVVDTIPVELKSSYMVWSWFIYVLSANLLLVIPLLWVAAWWSLRPIEALAKEVRELEEHNRELLNPATTRELTSLVRNLNRLLKSERERYDKYRTTLTDLTHSLKTPLXXLQXXLRSLRSEKMSVSDAEPVMLEQISRISQQIGYYLHRASMRGGTLLSRELHPVAPLLDNLTSALNKVYQRKGVNISLDISPEISFVGEQNDFVEVMGNVLDNACKYCLEFVEISARQTDEHLYIVVEDDGPGIPLSKREVIFDRGQRVDTLRPGQGVGLAVAREITEQYEGKIVAGESMLGGARMEVIFGRQHSAPKDE

Variants of: B1
Test: enrichment ratio after two sorts for PhoP signalling (ratio (wild type AVST 3.29)); higher = more functional
Conditions: with PhoP (E. coli)

Variant | enrichment ratio
QTGD | ≤ 0.25
SCLG | 12.6
LTRT | ≤ 0.25
MMSF | ≤ 0.25
FQYC | ≤ 0.25
AHYK | ≤ 0.25
LYNL | ≤ 0.25
WFFL | ≤ 0.25
KSPG | ≤ 0.25
TYNC | 2.52
PMLR | ≤ 0.25
RARG | ≤ 0.25
WVKC | ≤ 0.25
ANRE | ≤ 0.25
MEHN | ≤ 0.25
HPAR | ≤ 0.25
IYPS | ≤ 0.25
DIYN | ≤ 0.25
EMTI | ≤ 0.25
VAKM | ≤ 0.25
MSHA | ≤ 0.25
HAGP | ≤ 0.25
GGTD | ≤ 0.25
ISGK | ≤ 0.25
EYIR | ≤ 0.25

Variant | enrichment ratio
YQAT | 0.465
CLAW | ≤ 0.25
NKED | ≤ 0.25
PGVK | ≤ 0.25
HNAA | ≤ 0.25
SMAT | 7.92
AMRE | ≤ 0.25
FNSI | ≤ 0.25
VCIA | ≤ 0.25
LHDD | ≤ 0.25
QEAY | 1.27
NMML | ≤ 0.25
KEHT | ≤ 0.25
RTVN | ≤ 0.25
PWER | ≤ 0.25
YVMW | ≤ 0.25
QYFP | ≤ 0.25
ATMI | 19.9
TCYG | 4.33
KGDV | ≤ 0.25
MKLN | ≤ 0.25
THLS | 5.69
IPEF | ≤ 0.25
FTNA | ≤ 0.25
MGEG | ≤ 0.25

Variant | enrichment ratio
GYFL | ≤ 0.25
LRFV | ≤ 0.25
AYHK | ≤ 0.25
DWPV | ≤ 0.25
LIKG | ≤ 0.25
HFFQ | ≤ 0.25
NCWV | ≤ 0.25
PPLY | ≤ 0.25
ATLF | 13.9
DVLS | ≤ 0.25
SWPT | ≤ 0.25
MPRL | ≤ 0.25
YTVC | ≤ 0.25
ALAH | 3.82
DKLD | ≤ 0.25
WWTY | ≤ 0.25
EISY | ≤ 0.25
SRKV | ≤ 0.25
YLVS | ≤ 0.25
AMKG | ≤ 0.25
YMSP | ≤ 0.25
AEER | ≤ 0.25
TFMA | 7.14
TNSE | 5.1
VETP | ≤ 0.25

Variant | enrichment ratio
YVGI | ≤ 0.25
DFPW | ≤ 0.25
VHEL | ≤ 0.25
TWEL | ≤ 0.25
IDVR | ≤ 0.25
HKQV | ≤ 0.25
ECPT | ≤ 0.25
CFYL | ≤ 0.25
EAPC | ≤ 0.25
QGDW | ≤ 0.25
TAIH | ≤ 0.25
ATCW | 11.3
VYDC | ≤ 0.25
SPSF | ≤ 0.25
HKPP | ≤ 0.25
LDDS | ≤ 0.25
FMQY | ≤ 0.25
PSTC | ≤ 0.25
LQCA | ≤ 0.25
DHYK | ≤ 0.25
VMGF | ≤ 0.25
MTTL | 9.8
LLKI | ≤ 0.25
KWTT | ≤ 0.25
GHIC | ≤ 0.25

Variant | enrichment ratio
LHTS | ≤ 0.25
VLAD | ≤ 0.25
KHKH | ≤ 0.25
RCSC | ≤ 0.25
PNPH | ≤ 0.25
NPFR | ≤ 0.25
QTHA | ≤ 0.25
AETI | 16.8
HSNG | ≤ 0.25
KDIT | ≤ 0.25
KCQF | ≤ 0.25
NHWN | ≤ 0.25
MCWK | ≤ 0.25
LCGP | ≤ 0.25
NKWR | ≤ 0.25
MSHW | ≤ 0.25
DPDL | ≤ 0.25
RHGV | ≤ 0.25
QIQA | ≤ 0.25
PDMH | ≤ 0.25
LQQG | ≤ 0.25
IYKL | ≤ 0.25
VRFA | ≤ 0.25
NRFM | ≤ 0.25
IFAM | ≤ 0.25

Variant | enrichment ratio
RADC | ≤ 0.25
RDKS | ≤ 0.25
QDTY | ≤ 0.25
GCIA | ≤ 0.25
RNNK | ≤ 0.25
NMSF | ≤ 0.25
FNNQ | ≤ 0.25
LMHP | ≤ 0.25
FFDK | ≤ 0.25
SNKQ | ≤ 0.25
LMHC | ≤ 0.25
WMMG | ≤ 0.25
HAIR | ≤ 0.25
SSPM | 0.954
HDVA | ≤ 0.25
QQFY | 4.21
VHHQ | ≤ 0.25
KCLG | ≤ 0.25
DFMK | ≤ 0.25
SIGY | 14.3
NYKD | ≤ 0.25
NLYD | ≤ 0.25
IGQV | ≤ 0.25
KRQG | ≤ 0.25
VASN | ≤ 0.25

Variant | enrichment ratio
PAEK | ≤ 0.25
TGNV | 10.1
MRHP | ≤ 0.25
TWKQ | ≤ 0.25
PPRN | ≤ 0.25
LRWH | ≤ 0.25
RTWQ | ≤ 0.25
GPCL | ≤ 0.25
FRAV | ≤ 0.25
LRMD | ≤ 0.25
DTWL | ≤ 0.25
MPDG | ≤ 0.25
QNHL | ≤ 0.25
IADS | ≤ 0.25
TDSL | 2.46
MQNP | ≤ 0.25
MPYT | ≤ 0.25
QQNH | 12.7
GDLA | ≤ 0.25
HIGF | ≤ 0.25
RHHA | ≤ 0.25
ECPN | ≤ 0.25
HAYH | ≤ 0.25
VSWF | ≤ 0.25
PFER | ≤ 0.25

Variant | enrichment ratio
KKFM | ≤ 0.25
SVRA | ≤ 0.25
MQDR | ≤ 0.25
STNA | ≤ 0.25
HFRG | ≤ 0.25
QITK | ≤ 0.25
GTCI | 11.7
WVNP | ≤ 0.25
INWM | ≤ 0.25
VHRA | ≤ 0.25
EHTT | ≤ 0.25
ERVW | ≤ 0.25
LQMK | ≤ 0.25
KLEF | ≤ 0.25
LINC | ≤ 0.25
YMCW | ≤ 0.25
VNCI | 3.94
LTKI | ≤ 0.25
RVIC | ≤ 0.25
IGKW | ≤ 0.25
